Data as given in the supplement of paper PMC9513381.
Recombinant human monoclonal antibodies (heavy:light variable regions). ELISA EC50 on the named antigen, from 10 µg/ml down; IC50 / IC90 against spike pseudovirus on 293T-ACE2 cells, 48 h; lower = stronger. Calls: IC50 above 1,000 ng/ml = non-neutralizing; EC50 above 1,000 ng/ml = non-binder. The source prints 1000 for neutralization that was not reached; it is given as >1000 ng/ml. Only binders of the Wuhan-Hu-1 domain have neutralization values.

B1: B2071 (protein)
chain 1: EVQLVQSGAEVKKPGESLKISCKGSGYSFTRYWIGWVRQMPGKGLEWMGIIYPGDSDTRYNPSFQGQVTVSADKSIGTAYLQWRSLKASDTAMYYCARIPHYYDRFGKARAEEYFQYWGQGTLVTVSS
chain 2: QSVLTQPPSVSGAPGQRVTISCTGNTSNIGAGFDVHWYQQLPGTAPKLLIYGNTNRPSGVPDRFSASKSGTSASLAITGLQPEDEADYYCQSCDSSLSTNWVFGGGTKLTVL
B2: B2078 (protein)
chain 1: EVQLVESGGGLVQPGGSLRLSCRVSGFTFSNYWMSWVRQAPGKGLEWVANIGQDGNEKYYVDSVKGRFTISRDNAKNSLYLQMNSLRAEDTAVYFCVRGMDDPYCSGGSCYNWYFDLWGRGTLVTVSS
chain 2: EIVLTQSPATLSLSPGERATLSCRASQSIYSYLAWYQQKPGQAPRLLIYDASNRATGIPARFSGSGSGTDFTLTISSLEPEDFAVYYCQQRNNWPPRFTFGPGTKVDIK
B3: B2086 (protein)
chain 1: QVQLVESGGGVVQPGRSLRLSCAVSGFTFSKYGMHWVRQAPGKGLEWVAVIWYDGSNKYYVDSVKGRFTTSRDNSKNTLYLQMSSLRADDTAVYYCVKAGYSYAYTPYYFDYWGQGTLVTVSS
chain 2: IRMTQSPSSLSASVGDRITITCQASQDIRKYLNWYQQKPGKAPKLLIYDASDLETGVPSRFSGSGSGTDFTLTISNLQPEDFARYYCQQNDNLPLTFGGGTKVEIK
B4: B2082 (protein)
chain 1: EVQLVESGGGLVQPGGSLRLSCAASGITVSSNYMSWVRQAPGKGLERVSVIYSGGSTFYADSVKGRFTISRDNSKNTLYLQMKSLRAEDTAVYYCARDVSDAFDIWGQGTMVTVSS
chain 2: DIQLTQSPSFLSASVGDRVTITCRASQGISSYLAWYQQKPGKAPKLLIYAASTLQSGVPSRFSGSGSGTEFTLTISSLQPEDLATYYCQQLNSLPPKLTFGGGTKVEIK
B5: B2073 (protein)
chain 1: QVQLQESGPGLVKPSGTLSLTCAVSGGSISSSNWWSWVRQPPGKGLEWIGEIYHSGSSNYNPSLESRVTMSVDKSKNHFSLKLSSVTAADTAVYYCARASYYYGLGSYSQHPYYFDYWGQGTLVTVSS
chain 2: QSVLTQPPSVSGAPGQRVTISCTGSSSNIGAGYDVNWYQQLPGTAPKLLIYDNSNRPSGVPDRFSGSKSGTSASLAITGLQAEDEADYYCQSYDNSLGGFWVFGGGTKLTVL
B6: B2083 (protein)
chain 1: QVQLVQSGAEMKKPGASVKVSCKASRYTFTGYYIHWVRQAPGQGLEWMGWINPDSGGVNYAQKFQGRVTMTRDTSINTAYMELSSLRSDDTAVYYCATHVLRSCSGGTCYEYYYYGMDVWGQGTTVTVSS
chain 2: QSALTQPASVSGSPGQSITISCTGTNSDVGAYDLVSWYQQHPDKAPKLIIYEVTKRPSGVSNRFSGSKSGNTASLTISGLQADDEADYFCCSFTGRSASFWVFGGGTKLTVL
B7: B2081 (protein)
chain 1: QLQLQESGPGLVKPSETLSLTCTVSGGSITSSSYYWAWIRLPPGKGLEWIGSVFYSGITYYSPSLKSRVTISVDTSKNQFSLNLSSVTAADTAVYYCARWPRDFSDSSGYYHHAFDIWGHGTMVTVSS
chain 2: QSALTQPASVSGSPGQSITISCTGTSSDVGSYDLVSWYQRHPGQAPKLMIYEVTKRPSGVSNRFSGSKSGNTASLTISGLQAEDEADYYCCSYAGRWFFGGGTKLSVL
B8: B2080 (protein)
chain 1: QVQLVQSGAEVKKPGASVKVSCKASGYTFSGYYMNWVRQAPGQGLEWMGWINPNSGGTNYAQKFQGRVTMTRDTSISTAYMELSRLTSDDTAVYYCARPTGDSQREMGTIIGEYFQHWGQGTLVTVSS
chain 2: SYELTQPPSVSVSPGQTARITCSGDVLPKQHAYWYQQKPGQAPVLVIYKDSERSSGIPERFSGSSSGTTVTLTISGVQAEDEADYYCQSADSRYVVFGGGTKLTVL
B9: B684 (protein)
chain 1: QMQLVQSGPEVKKPGTSVKVSCKASGFTFTTSAVQWVRQARGQRLEWIGWIAVGSGNTDYAQKFQERVTITRDLSTSTAYMELRSLRSEDTAVYYCAAPYCSGGTCSDGFDIWGQGTMVTISS
chain 2: EIVLTQSPGTLSLSPGERATLSCRASQSVRTGYLAWYQQKPGQAPRLFINGASNRATGIPDRFSGSGSGTDFTLTISRLEPEDFAVYYCQQYGTSPWTFGQGTKVEIK
B10: B682 (protein)
chain 1: QVQLVESGGGVVQPGRSLRLSCAASGFNFNTYGMHWVRQAAGKGLEWVALISYDGSNEYYADSVKGRFTISRDISKNTVYLQMNSLRAEDTAVYYCAKSIFSYAYPNQYFDYWGQGTLVTVSS
chain 2: AIQLTQSPSSLSASVGDRVTITCRTSQGISNALVWYQQKPGKAPKLLIYDASSLESGVPSRFSGSGSGTDFTLTISSLQPEDFATYYCQQFNSYPLTFGGGTKVEIK
B11: B685 (protein)
chain 1: QVQLVQSGAEVKKPGASVKVSCKASGYTFSGHYIYWVRQAPGQGLEWMGRINPNTGDTDSAQKFQGRVTMTRDTSISTAYMELSRLGSDDTAVYYCARVFSRIRALVQGGVATFDIWGQGTMVTVSS
chain 2: DIQMTQSPSSLSASVGDRVTITCRASQTVSSNLNWYQHKPGKAPKLLIYTASNLQSGVPSRFSGGGSGTDFTLTIASLQPEDFATYYCQQSYSIPPTFGQGTKVEIK
B12: B2075 (protein)
chain 1: EVQLLESGGGLVQPGGSLRLSCAASGFTFSNYAMNWVRQAPGKGLEWVSAIDGSVGSTYYADSVKGRFTISRDNSKNTLYLQMNSLRADDTAVYYCAKRRGYYDSIHYRPGPEYFQNWGQGTLVTVSS
chain 2: DIQLTQSPSSLSASVGDRVTITCRASQSISEYLNWYQQRPGRAPELLIYAASTLESGVPSRFSGSGYGTDFTLTISSLQPEDFATYYCQQSYNTPESFGQGTKVEIK
B13: B2067 (protein)
chain 1: QVQLQESGPGLVKPSQTLSLTCTVSGGSISSGGYYWHWIRQHPGKGLEWIGSIYYSGSTYYNPSLKSRVTISVDTSKNQFSLKLSSVTAADTAVYYCARDFGGNANYFHFWGQGTLVTVSS
chain 2: IRMTQSPSSLSASVGDRVTITCQASQDINKHLSWYQQKPGKAPKLLIYDASDLEAGVPSRFSGSGSGTDFTFTIRTLQPEDIATYYCQQNENLPLTFGGGTKVEIK
B14: B2111 (protein)
chain 1: EVQLVESGGGLVQPGRSLRLSCAASGFTFEDYAMHWVRQVPGKGLEWVSGLTWNGGTIGYADSVKGRFFISRDNAENSLYLQMMRLRPEDTALYYCVKDRGDYGDSSWYLDLWGRGTLVTVSS
chain 2: QSALTQPRSVSGSPGQSVTISCTGTSSGVGSYDYVSWYQQHPGKAPKLMIFDVSKRPSGVPDRFSGSKSGNTASLTISGLQAEDEADYYCCSYAGDYYVFGIGTKVTVL

Molecular target: SARS-CoV-2 Wuhan-Hu-1 spike pseudovirus
Assay: pseudovirus neutralization IC50; higher = weaker neutralization
Protocol: (§1)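 Single-round luciferase reporter pseudovirus mixed with antibody dilutions and put on 293T-ACE2 cells for 48 h; signal relative to no-antibody wells, four-parameter fit.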

| Binder | pseudovirus neutralization IC50 [µg/mL] |
| --- | --- |
| B1 | 0.0294 |
| B2 | 0.00578 |
| B3 | > 1 |
| B4 | 0.00851 |
| B5 | 0.864 |
| B6 | 0.0268 |
| B7 | > 1 |
| B8 | > 1 |
| B9 | 0.00342 |
| B10 | > 1 |
| B11 | 0.012 |
| B12 | 0.00156 |
| B13 | > 1 |
| B14 | 0.0158 |

Molecular target: SARS-CoV-2 Wuhan-Hu-1 spike pseudovirus
Assay: pseudovirus neutralization IC90; higher = weaker neutralization
Protocol: as §1

| Binder | pseudovirus neutralization IC90 [µg/mL] |
| --- | --- |
| B1 | 0.271 |
| B2 | 0.0603 |
| B3 | > 1 |
| B4 | 0.052 |
| B5 | > 1 |
| B6 | 0.861 |
| B7 | > 1 |
| B8 | > 1 |
| B9 | 0.021 |
| B10 | > 1 |
| B11 | 0.241 |
| B12 | 0.00723 |
| B13 | > 1 |
| B14 | 0.335 |

Molecular target: SARS-CoV-2 Delta (B.1.617.2) spike RBD
Assay: ELISA binding EC50; higher = weaker binding; ELISA of recombinant human antibody on coated antigen, from 10 µg/ml in fourfold dilutions; four-parameter fit.

| Binder | ELISA binding EC50 [µg/mL] |
| --- | --- |
| B1 | 0.0065 |
| B2 | > 1 |
| B3 | 0.0106 |
| B4 | 0.011 |
| B5 | 0.146 |
| B6 | > 1 |
| B7 | 0.0271 |
| B8 | 0.0382 |
| B9 | 0.00788 |
| B10 | 0.0476 |
| B11 | 0.751 |
| B12 | 0.00268 |
| B13 | 0.0135 |
| B14 | 0.199 |

Molecular target: SARS-CoV-2 Omicron BA.1 spike protein
Assay: as above

| Binder | ELISA binding EC50 [µg/mL] |
| --- | --- |
| B1 | 0.0846 |
| B2 | 0.125 |
| B3 | 0.0399 |
| B4 | > 1 |
| B5 | 0.19 |
| B6 | 0.135 |
| B7 | 0.279 |
| B8 | > 1 |
| B9 | 0.0242 |
| B10 | 0.00263 |
| B11 | > 1 |
| B12 | 0.025 |
| B13 | 0.024 |
| B14 | 0.0144 |

Molecular target: SARS-CoV-2 Wuhan-Hu-1 spike receptor-binding domain
Assay: as above

| Binder | ELISA binding EC50 [µg/mL] |
| --- | --- |
| B1 | 0.0032 |
| B2 | 0.00296 |
| B3 | 0.00359 |
| B4 | 0.00128 |
| B5 | 0.0107 |
| B6 | 0.0048 |
| B7 | 0.00332 |
| B8 | 0.00372 |
| B9 | 0.0023 |
| B10 | 0.00329 |
| B11 | 0.00273 |
| B12 | 0.00162 |
| B13 | 0.00158 |
| B14 | 0.00357 |
